Among all 150,000 compounds or so, about 540 (0.36%) showed an effect of 50% or more. The list shows a part of the results.

The assay has as its system Plasmodium falciparum. Briefly: Primary screen in NF54 nanoGlo assay, in single point, at 2uM, 72h; a lower Z score goes with more inhibition. In kind it is functional, Erythrocyte. The settings on record: timepoint 72 hour.
In the case of `CCCOCC(=O)NC[C@H](O)c1c(Cl)cccc1Cl`, the “% Inhibition” value is listed as 3% and the Z score was -0.26.

Regarding `O=C(Nc1ccc(C(F)(F)F)cc1)c1cn(C[C@H](O)c2cccs2)nn1`, the “% Inhibition” value is listed as -5% and the Z score came to 0.91.

With `C[C@H](O)CNC(CC1CCN(C(=O)OC(C)(C)C)CC1)c1cccnc1` (stereo partly specified), the “% Inhibition” value is recorded as -12% and the Z score was found to be 1.62.

As for `O=C(NCCN1CCOCC1)c1cc2cn(C3CCCC3)cc2s1`, the “% Inhibition” value was -2% and the Z score is listed as 0.47.

Consider `Cc1ccc(S(=O)(=O)N2CCN(C(=O)Cc3ccc(S(=O)(=O)N4CCOCC4)s3)CC2)cc1`, for which the “% Inhibition” value was -7% and the Z score was determined as 0.77.

Turning to `Cc1cc(CN(C)C(=O)Cn2ncc(N3CCc4ccccc4C3)cc2=O)on1`, the “% Inhibition” value is 10% and the Z score is recorded as -0.93.

Take `Cc1ccc(-c2nnc(C)c(N3CCCCC3)n2)cc1`: the “% Inhibition” value is on record as -2% and the Z score came to 0.38.

Regarding `Cc1nnc(N[C@@H](C)CCc2ccccc2)c(C#N)c1C`, the “% Inhibition” value is reported as -7% and the Z score is listed as 1.39.

As for `Cc1cnn(CCC(=O)N2CCC([C@H]3[C@@H](Oc4ccccc4)CN3C(C)C)CC2)c1`, the “% Inhibition” value is 3% and the Z score is given as -0.31.

As to `CCn1ncnc1[C@@H](NC(=O)c1ccc2c(c1)OCO2)C1CC1`, the “% Inhibition” value turned out to be 4% and the Z score is listed as -0.55.

Consider `O=C(NC1CCN(c2ccccc2C(=O)N2CCN(C3CCCCCC3)CC2)CC1)c1cccc(F)c1`, for which the “% Inhibition” value is reported as 1% and the Z score is -0.12.

As for `CN1C[C@@H](N)C[C@H]1c1nc(COc2ccc(F)cc2)nn1CC(F)(F)F`, the “% Inhibition” value is listed as 1% and the Z score was -0.2.

On to `C#CC(CC)(CC)NC(=O)c1cccc(Cl)c1`, for which the “% Inhibition” value is -6% and the Z score was 0.77.

For the compound `CC[C@](O)(CCCO)CNC(=O)c1nccn1C`, the “% Inhibition” value is recorded as -4% and the Z score came to 0.66.

Take `Cc1ncsc1-c1ccc(CN[C@H]2CCO[C@@H]2c2cc[nH]n2)cc1`: the “% Inhibition” value is reported as -2% and the Z score amounted to 0.2.

Take `CC(C)N1C(=O)N[C@]2(CCN(CCOCC(F)(F)F)C2)C1=O`: the “% Inhibition” value is listed as -12% and the Z score is on record as 2.09.

For `CCc1onc(C)c1[C@@H]1CCCN1C(=O)Nc1cccc(F)c1`, the “% Inhibition” value was 4% and the Z score is -0.51.

As for `CCn1c(Cn2cnc(C(=O)OC)n2)nc2c(F)cccc21`, the “% Inhibition” value is recorded as -14% and the Z score worked out at 2.68.

As for `Cc1ccsc1C(=O)Nc1cnn(-c2ncc(Cl)cc2Cl)c1`, the “% Inhibition” value is on record as -22% and the Z score is given as 4.17.

As to `O=C(Nc1cnns1)[C@H]1CCC(=O)N(C2CC2)[C@@H]1c1ccncc1`, the “% Inhibition” value is recorded as -3% and the Z score was found to be 0.48.

For the compound `CS(=O)(=O)N1CCN(C(=O)NCC[C@H](O)c2cccc(Cl)c2)C1=O`, the “% Inhibition” value is given as -18% and the Z score is on record as 2.33.

On to `CCCC1(CNc2cncc(C(N)=O)n2)CCC1`, for which the “% Inhibition” value is -6% and the Z score is reported as 1.

For `O=C(NCCS(=O)(=O)c1ccc(F)cc1)c1n[nH]c2c1CCC2`, the “% Inhibition” value is on record as -18% and the Z score is 2.64.

Usually % Inhibition stands for the relative decrease from the control value, in per cent.

These data come from ChEMBL document CHEMBL4888484, “Replenishing the malaria drug discovery pipeline: Screening and hit evaluation of the MMV Hit Generation Library 1 (HGL1) against asexual blood stage Plasmodium falciparum ,using a nano luciferase reporter read-out” (2022).
